Source: the supplement of paper PMC12632987
Whole data set: some 4,500 sequences, median “median log2 fold change of GCK-ALFA target abundance (FLAG IP / Myc IP barcode read proportion)” near 0.078, cut for the lowest 2% near -0.6. This is one part of the list.

B1: GBRAP_160_4522 (protein)
chain: SERLERIKELLEEAAEEAKKMIEGETAEQRAVIVDGEFGSLAMELALDPEVSDEEVDVVLEERDKLVATILANPDLTDEEVKELIEEAVERIKKKLEELF
B2: GBRAP_35_5543 (protein)
chain: SSDEEIAEMLVNTMEDIVLALPDVDDETFIALTEHLIRLAKDLVELKPKDKELIERAIEVLEEAIEIVKKSSLPEETRERLIEELEELKEELEKILKEVK
B3: GBRAP_52_6334 (protein)
chain: MEERIEEVARKIVEAVEAGKEEEAIELTKELAKEFSLEEVRRAMRLFAELAVARLPDREDLVMETAEKLADVIEEVTGDEVLADEFEAYTAALLHAARLA
B4: GBRAP_128_3315 (protein)
chain: MDEEKLEEAERLVEEMKKADLEELAELTARLVDLMGTLTPEEREIVAEIFREALKELSAEKLDVVADVLREKRPSLDPETANIVADLEVEALNEAEEKEE
B5: GBRAP_57_6470 (protein)
chain: EERLKKVEEHGEKALALIEAGAPTEEVLAEIGKMLEELSEETLRDILLIADPEAEYDISKEEAIARLLALARAYLEAGDTEAVRRLVELIEGQAEMDSEE
B6: GBRAP_43_5739 (protein)
chain: DQEVVDAAAEVALLALESEELDDETKIRIIKDFLEVFADSGLPGEELAKELAEKLDNYENPENVEEAIKLAKELAKKNPKYKKTFEAIAEYLKKLLEKLK
B7: GBRAP_14_3799 (protein)
chain: MEEREKAIEEITEETLEILEEILADAPEEVRERVLELVEEARERIIKEKLSPDEIAELEDELLEEVAKILADAPPEVRAQVLAAISVGMGEIILEVEELE
B8: GBRAP_184_5156 (protein)
chain: KILERVIEAENLEELKEKMEEVKEEAKKEKAEVIILLKTKKLTKEMVDALAEKIKEMKEEGYVKSITVGIDADVTEEMADYAIEKLDKAGAKVAIALPDE

The binders below were run against GABARAP, O95166 (assay: median log2 fold change of GCK-ALFA target abundance (FLAG IP / Myc IP barcode read proportion) (log2 ratio); each designed protein is fused to an ALFA-tag nanobody in HEK293 cells to bring the named protein to FLAG-tagged glucokinase (GCK); Myc marks an untargeted standard; higher = target protein stabilised (more abundant)). Conditions: target protein: 3xFLAG-MCP-GCK-ALFA reporter; HEK293 landing pad (RPLP).
Outline: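 An ALFA-nanobody-fused binder library was recombined into HEK293 landing-pad cells and induced with 2 μg mL^−1 doxycycline. Cells were transfected with a plasmid expressing a FLAG-tagged target and a Myc-tagged standard. After 48 h, lysates underwent anti-FLAG and anti-Myc immunoprecipitation, and circular RNA barcodes were reverse transcribed, amplified and sequenced. Target abundance is the per-binder median log2 ratio of FLAG to Myc barcode read proportions. Barcodes needed ≥10^−7 proportion in both replicates, binders ≥3 barcodes per replicate, and a 10^−6 pseudocount was added; the two replicates were pooled.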

Sequence of GABARAP, O95166 (O95166 whole entry, the tested form may be a part): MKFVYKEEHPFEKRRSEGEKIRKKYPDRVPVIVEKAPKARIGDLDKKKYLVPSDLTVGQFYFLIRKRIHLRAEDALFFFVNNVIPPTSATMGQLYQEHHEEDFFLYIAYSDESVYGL

Binder	median log2 fold change
B1	0.0223
B2	0.204
B3	-0.16
B4	0.335
B5	0.218
B6	-0.00175
B7	-0.611
B8	0.013
